Experimental data: the supplement of paper PMC10126150
Sequences with one replicate were seen in a single cluster, so their values are uncertain.

System: ATP
Test: switch fluorescence ratio, 500 uM ATP over buffer (Cy3 cluster intensity, sum of 5 cycles each) (fold (ratio)); higher = stronger signal-on switching upon ATP binding; sequences stand for … in TCGTCGGCAGCGTCAGATGTGTATAAGAGACAGTTTTTTTTTTTTTTTTTTTTTTTTT…TC
Conditions: aptamer strand: ATP DNA aptamer (quencher-CACCTGGGGGAGTATTGCGGAGGAAGG + anchor), 100 nM annealed; ATP concentration: 500 uM; one replicate
Procedure, shortened: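 After annealing to 100 nM quencher-labelled ATP aptamer, Cy3-labelled switching-strand clusters on a modified Illumina MiSeq flow-cell were imaged in selection buffer. A second image followed after 15 min with 500 uM ATP at 22 °C, and five such buffer/ATP cycles were done, each separated by NaOH stripping and re-annealing. The fluorescence ratio, averaged per switch-domain sequence, is summed target-cycle over summed buffer-cycle Cy3 intensity per cluster, with clusters outside 100-1000 RFU excluded.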
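Further: ATP exposure 15 min at 22 °C before imaging.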

Sequence	switch fluorescence ratio
ATTTGACGG	1.07
CCAATCATTG	1
TACATACCAT	1.41
CACTCCATTC	1.12
ACTTTCCTAA	0.999
ACGATTCGCC	1.06
CTTCTTTGCC	1
CCAACTCGTG	1.01
GATAGGACAA	1.02
GGTTCGGTCT	1
TTTTAGCCCT	1.01
TGCCACCCGG	1.02
CCAAAGCCGC	2.32
CCACCCACCC	1.38
AAAGGAGGAC	1.4
ACATGTTATC	0.991
GTTATTCTTT	0.987
CGGCACTTCT	1.06
ATGCAGATTT	1
CCAACATGG	1
TGCCGGTCAC	1.09
CGCAACGAAT	1.05
TCCTTAGACG	1.01
TACGTGTGAA	1.05
TTCCTGGG	0.994
ATCCGCACAG	5.8

Sequence	switch fluorescence ratio
TAGAAAGAT	1
CGTTAAGAAT	1.03
TGTGAGTGTT	0.986
ATTAACTTCA	1.04
TGCGTAGTCA	0.971
CGTTTAGGTC	1.02
TAGGACTTAT	1.03
ATCCCACTAG	1.1
ATAGGAAAGA	1.02
AGTTCGTGG	1.04
CGCGAACACC	1.11
TCCCTGTTC	1
CGGTAGCGAC	1.69
AGGGCCCACC	1.01
CCTTGGCGAC	3.44
CTGTTTTAGG	1.01
TCCTTGGCA	1.6
CTCAGCCGTC	1.03
TCGTTAATA	1
AGGCGCCTAG	1.02
ATGGTCTGAC	1.09
TTTCGCCGAG	1.02
TCGTTTGAAC	0.99
TTAGCAAAAT	1.39
TCGTGCGATT	1.16
ACGCCCGTA	1.06

Sequence	switch fluorescence ratio
GCGGGCTTGC	0.979
TATTCTATCG	1.01
GCTTCACATT	1.03
GCTTCAAGTA	0.978
TTATACGCAT	2.94
GACACTAATG	0.99
TCCTGGTATT	1.01
ACTTGAGCCG	0.965
CCCCAGCTGT	3.05
TCGTGTGTAT	1
TTAATGAGCT	1.01
CGCGGGATGA	1.02
CGACTCCCGA	1.78
CGTCGTTATC	1.09
TCCGTTCCG	1.09
GCGTGTGAGG	1
ACACGCGTAA	1.06
TGTTATAGAG	1.01
TAACGTGATC	2.05
ATTGTGTCAT	1.04
GACAGATTGG	0.934
GGGAATGT	0.981
TTTTATCTTC	1.03
GAACCCACGC	1.43
CCGCTTTGGC	1.86
CAGGGGGCA	1.03

Sequence	switch fluorescence ratio
GGGTCACTTA	1.03
GGGCAACTAA	1.03
ATTCCATGT	1.01
AGGATCACGA	0.973
CTTACCCCAT	1.1
GGAAAGGAAT	0.98
TGTCGTTTGG	0.962
TTCCGTTTGC	1.46
AGGGGTCTAT	0.977
TGACTTTCGG	0.984
GGATTATAGA	0.971
CAATGATGAA	0.993
TTAGCCGCCT	1.07
CAGGAGATTG	0.989
CCTGCAAAAA	1.14
AGCATGGAAC	1.13
AAGTGCTC	1
GCTGGCCTCC	1.03
TTGGGTGCAT	1.12
CGTACTCATT	1.01
AGGGCGAGAA	1.08
ACCGCGAATG	1.31
CAACTGAAGA	0.969
AGAGGGTAGC	0.982
CTGCACATCA	1.1
GACCACTTTT	1.03

Sequence	switch fluorescence ratio
GCAGCGGTGC	1.17
ACGGACGTCT	0.996
TAGGGGAGT	0.992
ACTTTAAGG	1.04
TGTTACGCCA	1.17
AGGCGTTTGT	0.99
CAAATGGAAC	1.04
TTGGGTAGA	1.02
GGGGGGTCG	1.04
GAGATATACG	0.98
GACGCGGCCG	1.06
AAGAAGGCA	0.999
AGTCGCATA	1.04
TTGTATGCGC	1.01
GTATCAGTTT	1.01
ATTTCAATGA	1.01
TCTGCCGTTG	1.04
TTGACCCGTC	1.01
ATCCAGTGTT	1.04
CATCGATCAT	0.974
GGCTTTGGCA	0.959
TCTCTCTCGC	1.28
TCACAGTAT	1.15
CTGAATGAGC	1.06
TTTCATCTC	0.995
CGACATAACG	1.07

Sequence	switch fluorescence ratio
GGTCTTCAAG	0.998
AATAGGACCT	1.39
GGATCTGAAA	1.03
CGAAGAGATA	0.955
TGCGAGATAT	1.03
AGGCGGCAG	1.01
AAATAGGGCC	0.954
TAGTTAGGCC	1.01
CATGAGGCCT	1
GATGCGTTT	0.99
AATTTGCATT	1.04
TTTACAAGGG	0.984
GCACCGACAG	1.24
TATATGGATG	0.955
TCATTGACGC	1.02
GAATTTTCAG	0.991
TATGTTAATT	1.06
ACTGTGACG	1.05
TCATTCCAGT	1.02
TGTTAAAGTC	0.992
GCCAGTAGCC	0.946
TTGGATGAGT	0.977
AGTGAGCACC	1.02
TTTATTAGTG	0.985
TTGGTAGGCA	0.999
TGTTCGTTAA	1.01

Sequence	switch fluorescence ratio
GTTTTGCTAC	1.08
GGTTCAAACT	1.01
AGACGTCTAC	0.992
GTTGTGAGAT	0.972
CGAGTAAAGG	1.01
CGATGCCGGT	0.982
TATAGCGGCC	1.02
TCCATTAGGG	1.02
ATTCCAGCGC	1.06
TCATATAAGT	0.991
CTATTCCAAA	0.992
ACGATAAATT	1.09
AAGATAAGC	0.989
TTGACCTTCC	2.55
TCGAGATAGG	0.997
GACCGCTCGC	1.55
CTGCAAGCTT	1.35
TGATGCAGA	1.07
TTTATAAG	0.957
GGTAGTTAAT	1.02
ACAGCAGTCG	1.05
AGCCCTACTA	1.05
AATAGCTTT	1.01
TTTTCGGTGT	1.02
ACTCCTCGGA	1.11
TGTTCCTTGA	0.995

Sequence	switch fluorescence ratio
ACAAATTCAA	0.985
GTTGGACCTC	0.991
AAGTATTACA	1.03
AGCTTCTAGA	0.994
GCTATAGATT	1
TATTCGTTGC	1.02
TCTGCATAGT	1.13
AGCGAAGTCC	1.02
CTAGTTTAAA	1.02
ATTAAGGGAG	1.02
CGTTCGTTTA	1.03
CTCATGATAG	1.07
AAAAGTGGAG	1.01
GCTGAGGGCT	0.979
CATCAGCACT	3.26
CCTAGTTGTC	1.02
CGCGGGAAAT	1.03
GAGACCGTTA	1.02
TAATCCTGGT	1.06
